# Assay results taken from the supplement of paper PMC8728848.
# This is one part of the list.
# Legend:
# Assay in all cases: glycan array binding signal (z-score within array); higher = stronger binding
# Settings in all cases: glycan notation: IUPAC condensed, linker removed
# [1] = molecular target: Fuc(a1-2)Gal
# Outline: (§1)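 Arrays were curated from the Consortium for Functional Glycomics database, 3228 in total, and kept only where the protein sequence was available. Binding is expressed as a within-array Z-score. This score was averaged across arrays of the same protein sequence at different concentrations or buffers and across linkers, and negative values can be read as non-binding.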
# [2] = molecular target: Fuc(a1-2)Gal(b1-3)GalNAc
# Outline: as §1
# [3] = molecular target: Fuc(a1-2)Gal(b1-3)GalNAc(a1-3)[Fuc(a1-2)]Gal(b1-4)Glc
# Outline: as §1
# [4] = molecular target: Fuc(a1-2)Gal(b1-3)GalNAc(a1-3)[Fuc(a1-2)]Gal(b1-4)GlcNAc
# Outline: as §1
# [5] = molecular target: Fuc(a1-2)Gal(b1-3)GalNAc(b1-3)Gal
# Outline: as §1
# [6] = molecular target: Fuc(a1-2)Gal(b1-3)GalNAc(b1-3)Gal(a1-4)Gal(b1-4)Glc
# Outline: as §1
# [7] = molecular target: Fuc(a1-2)Gal(b1-3)GalNAc(b1-4)[Neu5Ac(a2-3)]Gal(b1-4)Glc
# Outline: as §1
# [8] = molecular target: Fuc(a1-2)Gal(b1-3)GlcNAc
# Outline: as §1
# [9] = molecular target: Fuc(a1-2)Gal(b1-3)GlcNAc(b1-2)Man(a1-3)[Fuc(a1-2)Gal(b1-3)GlcNAc(b1-2)Man(a1-6)]Man(b1-4)GlcNAc(b1-4)GlcNAc
# Outline: as §1
# [10] = molecular target: Fuc(a1-2)Gal(b1-3)GlcNAc(b1-2)Man(a1-3)[Fuc(a1-2)Gal(b1-3)GlcNAc(b1-2)Man(a1-6)]Man(b1-4)GlcNAc(b1-4)[Fuc(a1-6)]GlcNAc
# Outline: as §1
# [11] = molecular target: Fuc(a1-2)Gal(b1-3)GlcNAc(b1-3)Gal(b1-4)Glc
# Outline: as §1
# [12] = molecular target: Fuc(a1-2)Gal(b1-3)GlcNAc(b1-3)GalNAc
# Outline: as §1
# [13] = molecular target: Fuc(a1-2)Gal(b1-3)GlcNAc(b1-3)[Fuc(a1-3)[Gal(b1-4)]GlcNAc(b1-6)]Gal(b1-4)Glc
# Outline: as §1
# [14] = molecular target: Fuc(a1-2)Gal(b1-3)GlcNAc(b1-3)[Gal(b1-4)GlcNAc(b1-6)]Gal(b1-4)Glc
# Outline: as §1
# [15] = molecular target: Fuc(a1-2)Gal(b1-3)GlcNAc(b1-3)[Neu5Ac(a2-6)Gal(b1-4)GlcNAc(b1-6)]Gal(b1-4)Glc
# Outline: as §1
# [16] = molecular target: Fuc(a1-2)Gal(b1-3)[Fuc(a1-4)]GlcNAc
# Outline: as §1
# [17] = molecular target: Fuc(a1-2)Gal(b1-3)[Fuc(a1-4)]GlcNAc(b1-2)Man(a1-3)[Fuc(a1-2)Gal(b1-3)[Fuc(a1-4)]GlcNAc(b1-2)Man(a1-6)]Man(b1-4)GlcNAc(b1-4)GlcNAc
# Outline: as §1
# [18] = molecular target: Fuc(a1-2)Gal(b1-3)[Fuc(a1-4)]GlcNAc(b1-3)[Fuc(a1-3)[Gal(b1-4)]GlcNAc(b1-6)]Gal(b1-4)Glc
# Outline: as §1
# [19] = molecular target: Fuc(a1-2)Gal(b1-3)[Fuc(a1-4)]GlcNAc(b1-3)[Gal(b1-4)GlcNAc(b1-6)]Gal(b1-4)Glc
# Outline: as §1
# [20] = molecular target: Fuc(a1-2)Gal(b1-4)Glc
# Outline: as §1
# [21] = molecular target: Fuc(a1-2)Gal(b1-4)Glc6S
# Outline: as §1
# [22] = molecular target: Fuc(a1-2)Gal(b1-4)GlcNAc
# Outline: as §1
# [23] = molecular target: Fuc(a1-2)Gal(b1-4)GlcNAc(b1-2)Man(a1-3)[Fuc(a1-2)Gal(b1-4)GlcNAc(b1-2)Man(a1-6)]Man(b1-4)GlcNAc(b1-4)GlcNAc
# Outline: as §1
# [24] = molecular target: Fuc(a1-2)Gal(b1-4)GlcNAc(b1-2)Man(a1-3)[Fuc(a1-2)Gal(b1-4)GlcNAc(b1-2)Man(a1-6)]Man(b1-4)GlcNAc(b1-4)[Fuc(a1-6)]GlcNAc
# Outline: as §1
# [25] = molecular target: Fuc(a1-2)Gal(b1-4)GlcNAc(b1-2)[Fuc(a1-2)Gal(b1-4)GlcNAc(b1-4)]Man(a1-3)[Fuc(a1-2)Gal(b1-4)GlcNAc(b1-2)Man(a1-6)]Man(b1-4)GlcNAc(b1-4)GlcNAc
# Outline: as §1
# [26] = molecular target: Fuc(a1-2)Gal(b1-4)GlcNAc(b1-3)Gal(b1-4)GlcNAc
# Outline: as §1
# [27] = molecular target: Fuc(a1-2)Gal(b1-4)GlcNAc(b1-3)Gal(b1-4)GlcNAc(b1-3)Gal(b1-4)GlcNAc
# Outline: as §1
# [28] = molecular target: Fuc(a1-2)Gal(b1-4)GlcNAc(b1-3)GalNAc
# Outline: as §1
# [29] = molecular target: Fuc(a1-2)Gal(b1-4)GlcNAc(b1-3)[Fuc(a1-2)Gal(b1-4)GlcNAc(b1-6)]GalNAc
# Outline: as §1
# [30] = molecular target: Fuc(a1-2)Gal(b1-4)GlcNAc6S
# Outline: as §1
# [31] = molecular target: Fuc(a1-2)Gal(b1-4)[Fuc(a1-3)]GlcNAc
# Outline: as §1
# [32] = molecular target: Fuc(a1-2)Gal(b1-4)[Fuc(a1-3)]GlcNAc(b1-2)Man(a1-3)[Fuc(a1-2)Gal(b1-4)[Fuc(a1-3)]GlcNAc(b1-2)Man(a1-6)]Man(b1-4)GlcNAc(b1-4)GlcNAc
# Outline: as §1
# [33] = molecular target: Fuc(a1-2)Gal(b1-4)[Fuc(a1-3)]GlcNAc(b1-2)[Fuc(a1-2)Gal(b1-4)[Fuc(a1-3)]GlcNAc(b1-4)]Man(a1-3)[Fuc(a1-2)Gal(b1-4)[Fuc(a1-3)]GlcNAc(b1-2)Man(a1-6)]Man(b1-4)GlcNAc(b1-4)GlcNAc
# Outline: as §1
# [34] = molecular target: Fuc(a1-2)Gal(b1-4)[Fuc(a1-3)]GlcNAc(b1-3)Gal(b1-4)[Fuc(a1-3)]GlcNAc
# Outline: as §1
# [35] = molecular target: Fuc(a1-2)Gal(b1-4)[Fuc(a1-3)]GlcNAc(b1-3)Gal(b1-4)[Fuc(a1-3)]GlcNAc(b1-3)Gal(b1-4)[Fuc(a1-3)]GlcNAc
# Outline: as §1
# [36] = molecular target: Fuc(a1-2)Gal(b1-4)[Fuc(a1-3)]GlcNAc(b1-3)GalNAc
# Outline: as §1
# [37] = molecular target: Fuc(a1-2)Gal6S(b1-4)Glc
# Outline: as §1
# [38] = molecular target: Fuc(a1-2)Gal6S(b1-4)Glc6S
# Outline: as §1
# [39] = molecular target: Fuc(a1-2)Gal6S(b1-4)GlcNAc
# Outline: as §1
# [40] = molecular target: Fuc(a1-2)[Gal(a1-3)]Gal
# Outline: as §1
# [41] = molecular target: Fuc(a1-2)[Gal(a1-3)]Gal(b1-3)GalNAc
# Outline: as §1
# [42] = molecular target: Fuc(a1-2)[Gal(a1-3)]Gal(b1-3)GlcNAc
# Outline: as §1
# [43] = molecular target: Fuc(a1-2)[Gal(a1-3)]Gal(b1-3)GlcNAc(b1-2)Man(a1-3)[Fuc(a1-2)[Gal(a1-3)]Gal(b1-3)GlcNAc(b1-2)Man(a1-6)]Man(b1-4)GlcNAc(b1-4)GlcNAc
# Outline: as §1
# [44] = molecular target: Fuc(a1-2)[Gal(a1-3)]Gal(b1-3)GlcNAc(b1-2)Man(a1-3)[Fuc(a1-2)[Gal(a1-3)]Gal(b1-3)GlcNAc(b1-2)Man(a1-6)]Man(b1-4)GlcNAc(b1-4)[Fuc(a1-6)]GlcNAc
# Outline: as §1
# [45] = molecular target: Fuc(a1-2)[Gal(a1-3)]Gal(b1-3)GlcNAc(b1-3)GalNAc
# Outline: as §1
binder,measurement,setting,value
"NanI (Corynebacterium diphtheriae), C6JSW7 (protein) MTNTLESNPMTTTTGALTITFATTCDGPLAHIPHHLDLNIIHGRIQGTTAHRRIDAEDPDGLDDGLPHHLCLSVDTTGTHLFIDGYEAFSTTQTEWFDTSELTLNPHGDLTIIDHQILNHAPTPRQARNLAPAAEPLVWFAGSHLSTRDTQRISHLTHGSLRLLMKTRGTGQGGVAFQAHTINGDLTLEIIDGTLIFSVRCHDEDYVRITAPGRWDDGQIYDVVIVCGRGATDIYVDGQQLIHSPGAAFFNDLSGELSVHIGTAASGVRLFGEVQSGMIYPHVFNHHQVQRLATVEPIATQALFDCLLDGAQSYRIPSLITTDSGVIIAGADKRVSIANDAPNDIDFVLRRSVDGGRTWQPPRTILQLPDTACVTDSVLLQDHTTGRIFAFLDQFPAGIGQPNAAFGTGFDADGNRIGHFADGSTCTMPREVDQLEASFFSDPHTAPPGIVFQHPSCHLWMLTSDDDGLTWSTPRDLTPDVKEEWMRFCGTSPGNGIQLQRDTHAGRLLIPMYYTKGDQFFAAALYSDDHGDTWHRGESPDLEMYESTLVEASDGSVLLWARNQHPSGAVAHARSTDGGHSWSQVTFNPNVPEIFSQPNALRVTNPDGIIFANASQLLPFRGRGVLRMSTNDGASWQHNRVFNPRHYVYQCMTQLPDGSIGLLWEREMQGLFFSIIPMTWIMQGYAL",glycan array binding signal (z-score),[1],0.72
same,glycan array binding signal (z-score),[2],-0.163
same,glycan array binding signal (z-score),[3],-0.694
same,glycan array binding signal (z-score),[4],-0.062
same,glycan array binding signal (z-score),[5],-0.391
same,glycan array binding signal (z-score),[6],-0.71
same,glycan array binding signal (z-score),[7],0.165
same,glycan array binding signal (z-score),[8],-0.286
same,glycan array binding signal (z-score),[9],0.306
same,glycan array binding signal (z-score),[10],-0.425
same,glycan array binding signal (z-score),[11],0.211
same,glycan array binding signal (z-score),[12],-0.909
same,glycan array binding signal (z-score),[13],0.007
same,glycan array binding signal (z-score),[14],-1.09
same,glycan array binding signal (z-score),[15],0.292
same,glycan array binding signal (z-score),[16],-0.975
same,glycan array binding signal (z-score),[17],2.38
same,glycan array binding signal (z-score),[18],-0.346
same,glycan array binding signal (z-score),[19],-0.223
same,glycan array binding signal (z-score),[20],0.383
same,glycan array binding signal (z-score),[21],0.688
same,glycan array binding signal (z-score),[22],-0.111
same,glycan array binding signal (z-score),[23],-0.508
same,glycan array binding signal (z-score),[24],1.08
same,glycan array binding signal (z-score),[25],-0.371
same,glycan array binding signal (z-score),[26],-0.027
same,glycan array binding signal (z-score),[27],-0.015
same,glycan array binding signal (z-score),[28],0.334
same,glycan array binding signal (z-score),[29],1.21
same,glycan array binding signal (z-score),[30],-1
same,glycan array binding signal (z-score),[31],-0.061
same,glycan array binding signal (z-score),[32],2.78
same,glycan array binding signal (z-score),[33],1.05
same,glycan array binding signal (z-score),[34],-0.866
same,glycan array binding signal (z-score),[35],-0.733
same,glycan array binding signal (z-score),[36],6.81
same,glycan array binding signal (z-score),[37],-0.1
same,glycan array binding signal (z-score),[38],0.16
same,glycan array binding signal (z-score),[39],-0.181
same,glycan array binding signal (z-score),[40],-0.5
same,glycan array binding signal (z-score),[41],0.789
same,glycan array binding signal (z-score),[42],-0.005
same,glycan array binding signal (z-score),[43],-0.114
same,glycan array binding signal (z-score),[44],0.442
same,glycan array binding signal (z-score),[45],-0.578
